Data published in PubChem BioAssay AID504332 (National Center for Advancing Translational Sciences (NCATS), 2011).
Among all 350,000 compounds or so, about 31,000 (8.9%) were called active. Inconclusive results, whose numbers are uncertain, are shown with a selection of clear calls. The call rests on the fitted dose curve; in most records, active means well fitted inhibition curve with a large enough effect; inconclusive means small, poorly fitted or top-dose-only effect; inactive means no such curve, though single readings can be large or run the other way. Potencies beside an inconclusive call are fits to weak or partial responses and may not hold up.

Target: Histone-lysine N-methyltransferase EHMT2 (Homo sapiens) (UniProt Q96KQ7)
Sequence of UniProt Q96KQ7 (Q96KQ7 whole entry, looked up): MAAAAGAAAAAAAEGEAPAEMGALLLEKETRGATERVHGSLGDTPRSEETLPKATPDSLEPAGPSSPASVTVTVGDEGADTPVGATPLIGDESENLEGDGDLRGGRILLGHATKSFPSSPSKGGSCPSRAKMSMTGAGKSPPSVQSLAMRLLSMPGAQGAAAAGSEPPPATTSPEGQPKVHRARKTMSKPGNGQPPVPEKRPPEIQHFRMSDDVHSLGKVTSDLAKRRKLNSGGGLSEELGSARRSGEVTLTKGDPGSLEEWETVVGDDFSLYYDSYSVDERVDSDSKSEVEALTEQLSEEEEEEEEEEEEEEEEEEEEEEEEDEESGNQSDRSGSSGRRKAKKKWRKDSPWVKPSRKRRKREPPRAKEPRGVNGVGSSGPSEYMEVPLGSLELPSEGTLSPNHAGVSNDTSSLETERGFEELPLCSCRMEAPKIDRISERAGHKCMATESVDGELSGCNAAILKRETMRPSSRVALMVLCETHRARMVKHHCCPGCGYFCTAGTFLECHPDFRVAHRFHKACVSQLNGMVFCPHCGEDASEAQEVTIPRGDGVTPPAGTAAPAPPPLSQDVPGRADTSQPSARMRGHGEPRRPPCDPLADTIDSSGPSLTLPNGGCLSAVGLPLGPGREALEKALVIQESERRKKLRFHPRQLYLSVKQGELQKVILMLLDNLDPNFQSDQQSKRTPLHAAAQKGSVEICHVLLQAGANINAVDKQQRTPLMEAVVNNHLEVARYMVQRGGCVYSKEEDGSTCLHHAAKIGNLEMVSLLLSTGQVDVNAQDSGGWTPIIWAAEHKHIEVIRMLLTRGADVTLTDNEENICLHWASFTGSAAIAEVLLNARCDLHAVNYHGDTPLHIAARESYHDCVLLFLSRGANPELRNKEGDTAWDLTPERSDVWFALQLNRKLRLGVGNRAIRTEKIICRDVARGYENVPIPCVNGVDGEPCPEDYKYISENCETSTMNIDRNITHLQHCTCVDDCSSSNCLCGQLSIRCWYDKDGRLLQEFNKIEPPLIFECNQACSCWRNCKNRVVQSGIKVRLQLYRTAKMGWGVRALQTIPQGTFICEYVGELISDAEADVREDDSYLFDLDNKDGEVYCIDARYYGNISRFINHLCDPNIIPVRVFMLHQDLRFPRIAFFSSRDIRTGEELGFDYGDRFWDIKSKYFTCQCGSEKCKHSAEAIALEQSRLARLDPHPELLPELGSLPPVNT
Test: qHTS Assay for Inhibitors of Histone Lysine Methyltransferase G9a; further: nearly all actives have a fitted effect of over 75% in size
Conditions: G9a H3K9 monomethylation, AlphaScreen, 2 h; activity, negative = inhibition: at 59 µM (top of the series) unless noted
Outline: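 Using a bead-based AlphaScreen, monomethylated H3K9 product from 2 h room-temperature reactions (G9a 20 nM, peptide 500 nM, SAM 20 uM) was detected with 0.5 ug/mL rabbit anti-H3K9me1 antibody.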
On the % scale 0 is the no-effect control and ±100 the full control effect; potency means the concentration at half of the fitted maximal effect; tags describe the fitted curve by direction and shape.

SMILES	Potency	activity, negative = inhibition
Nc1c(N2CCOCC2)cc(Cl)c2nonc12	inconclusive: 35.5 µM [inhibitor, single point]	–
CC(=O)N1CCc2cc(Br)cc(S(=O)(=O)N3CCC(C(=O)Nc4ccc(C(C)C)cc4)CC3)c21	–	inactive: 10.4%
Cc1ccccc1OCC(=O)NCC(c1ccc(Cl)cc1)N1CCCCC1 (stereo not given)	inconclusive: 6.31 µM [inhibitor, single point]	–
CCN=C1S/C(=C\c2cc(Br)ccc2OCC(=O)OCC)C(=O)N1CC	inconclusive: 3.16 µM [inhibitor, single point]	–
COc1ccc(/C=C2\SC(=S)N(CCC(=O)Nc3cccc(C(=O)O)c3)C2=O)cc1OC	–	inactive: -17.4% [at 102 µM]
Cn1ccsc1=NC(=O)c1ccc(S(C)(=O)=O)c([N+](=O)[O-])c1	inconclusive: 39.8 µM [inhibitor, single point]	–
C/C(CC(=O)Nc1ccccn1)=N\NC(=O)c1ccccc1	–	inactive: 15.6%
CCc1cccc(C)c1NC(=O)CN1C(=O)C2(SCC(=O)N2c2cccc(F)c2)c2ccccc21 (stereo not given)	–	inactive: -24.7%
CC12CCC(C(=O)Nc3nc4ccccc4s3)(OC1=O)C2(C)C (stereo not given)	inconclusive: 70.8 µM [inhibitor, partial curve, poor fit]	–
CSCC[C@H](NC(=O)N1CCn2c1nc1ccccc12)C(=O)NC1CC1	–	inactive: -32.9% [at 102 µM]
CC(C)S(=O)(=O)C1=NSC2=NC(=O)/C(=C\c3ccc(OC(=O)c4ccco4)cc3)C(=N)N21	–	inactive: 19.2% [at 0.0925 µM]
CCCc1ccc(OCc2ccc(C(=O)O)o2)c(OC)c1	–	inconclusive: -51.9% [inhibitor]
COc1ccc(S(=O)(=O)NNC(=O)c2csc(-n3nc(C)cc3C(F)(F)F)n2)cc1	inconclusive: 31.6 µM [inhibitor, single point]	–
COc1ccc(CNc2cc(-c3ccccc3Cl)ncn2)c(OC)c1	–	inactive: 6.14% [at 0.501 µM]
O=C(NC1CCCCC1)C(c1ccccc1)N(Cc1ccco1)C(=O)Cn1cnc2ccccc21 (stereo not given)	inconclusive: 31.6 µM [inhibitor, single point]	–
CCN(CC)S(=O)(=O)c1ccc(C)c(NC(=O)CNc2cccc(S(=O)(=O)N3CCCC3)c2)c1	–	inactive: -8.44% [at 102 µM]
CCOC(=O)N1CCN(C(=O)CCC(=O)N2CCOc3ccc(C)cc32)CC1	inconclusive: 100 µM [inhibitor, single point]	–
CNC(=O)/C(C#N)=C\c1ccc(CNS(=O)(=O)c2ccc(Cl)cc2)o1	–	inconclusive: -56.9% [inhibitor] [at 12.7 µM]
O=C(O)c1ccc(N/N=C/c2cn(Cc3ccc(F)cc3)c3ccccc23)cc1	active: 44.7 µM	–
OC(COCc1cccs1)CN1CCCCCC1 (stereo not given)	inconclusive: 50.1 µM [inhibitor, partial curve]	–
CCCCCc1ccc(-c2cn(CN3C(=O)c4ccccc4C3=O)nn2)cc1	inconclusive: 89.1 µM [inhibitor, single point]	–
C[C@@H](C(=O)Nc1ccc2ccccc2c1)[C@@H]1C[C@@]1(C)[C@@H](NC(=O)c1cnccn1)c1ccccc1	active: 50.1 µM	–
O=C(Nc1cccc(Cl)c1N1CCOCC1)c1ccco1	–	inactive: 9.85% [at 102 µM]
COC(=O)c1ccc(CSc2ncnc3sc(C)c(C)c23)o1	inconclusive: 7.94 µM [inhibitor, single point]	–

SMILES	Potency	activity, negative = inhibition
C[C@]1(C(=O)NCCCNc2ncc(C(F)(F)F)cc2Cl)C=C[C@@H](Cc2ccccc2)N1C(=O)c1ccccc1	inconclusive: 89.1 µM [inhibitor, single point]	–
CC[C@@H]1/C=C(\C)C[C@H](C)C[C@H](OC)[C@H]2O[C@@](O)(C(=O)C(=O)N3CCCC[C@H]3C(=O)O[C@H](/C(C)=C/[C@@H]3CC[C@H](Cl)[C@H](OC)C3)[C@H](C)[C@@H](O)CC1=O)[C@H](C)C[C@@H]2OC	–	inactive: -15.9% [at 12.7 µM]
CCOC(=O)N1CCc2c(sc(NC(=O)CN3CCN(C)CC3)c2C(=O)Nc2ccccc2)C1	inconclusive: 50.1 µM [inhibitor, partial curve]	–
CC(C)CC1=NN2C(=N)/C(=C\c3coc4ccccc4c3=O)C(=O)N=C2S1	inconclusive: 39.8 µM [inhibitor, partial curve]	–
COc1cc(NC(=O)c2cccs2)c(C(=O)OCC(=O)NC(C)c2ccccc2)cc1OC (stereo not given)	inconclusive: 89.1 µM [inhibitor, single point]	–
CCOC(=O)[C@@H]1CCNC[C@@H]1c1ccccc1	inconclusive: 89.1 µM [inhibitor, single point]	–
Cc1cc(NCCO)c2cc(O)ccc2n1	inconclusive: 3.55 µM [inhibitor, partial curve, poor fit]	–
COc1ccc(-n2c(SCC(=O)Nc3ccc(C(N)=O)cc3)nc3ccccc3c2=O)cc1OC	active: 50.1 µM	–
COc1ccc(Br)cc1[C@@H]1Nc2ccc(C(=O)O)cc2[C@@H]2C=CC[C@@H]21	inconclusive: 11.2 µM [inhibitor, partial curve]	–
COC(=O)c1cccnc1NC(=S)NC(C)C	inconclusive: 15.8 µM [inhibitor, full curve, poor fit]	–
O=C(O)c1cc(N2C(=O)C3CCCCC3C2=O)ccc1NCc1cccnc1 (stereo not given)	inconclusive: 31.6 µM [inhibitor, partial curve, poor fit]	–
N#C/C(=C\N1CCOCC1)c1ccccc1	–	inactive: 38.3% [at 12.7 µM]
O=C(Nc1ccccc1)Nc1cnccn1	–	inactive: 51.2% [at 102 µM]
CCC1Sc2ccc(S(=O)(=O)N3CCN(c4ccccc4)CC3)cc2NC1=O (stereo not given)	active: 17.8 µM	–
O=C(NC(=S)Nc1ccc2c(c1)OCO2)c1ccccc1	–	inconclusive: -89.1% [inhibitor]
CCSc1cc(C)nc2c(-c3ccc(Cl)cc3)c(C)nn12	inconclusive: 89.1 µM [inhibitor, single point]	–
O=C1C=C(NC2CC2)C2(CCCCC2)O1	–	inactive: -3.64% [at 102 µM]
C=CCNC(=S)NC(=O)c1oc2ccccc2c1C	inconclusive: 89.1 µM [inhibitor, single point]	–
Cc1noc(C)c1S(=O)(=O)N1CCN(S(=O)(=O)c2ccccc2C#N)CC1	–	inactive: 21.6% [at 102 µM]
Cc1cc(S(=O)(=O)Nc2noc3ccccc23)ccc1F	inconclusive: 89.1 µM [inhibitor, partial curve, poor fit]	–
Cc1ccc(C)c(N2CCN(CCCNC(=O)c3cnn(-c4ccc(F)cc4)c3C3CCN(C(=O)OC(C)(C)C)CC3)CC2)c1	inconclusive: 28.2 µM [inhibitor, partial curve, poor fit]	–
C/C(CC(C)(C)C1CCCCC1)=N\NC(N)=S	inconclusive: 70.8 µM [inhibitor, single point]	–
Cn1c(=O)c(Oc2ccc(Cl)cc2)c(O)c2ccccc21	active: 79.4 µM	–
CN(C)c1ccc(C(=O)N2CCNC(=O)C2CC(=O)Nc2ccc(F)cc2)cc1 (stereo not given)	–	inactive: -6.52% [at 12.7 µM]

SMILES	Potency	activity, negative = inhibition
CCCCP(=O)(CCCC)CCP(=O)(c1ccccc1)c1ccccc1	inconclusive: 89.1 µM [inhibitor, single point]	–
CCn1c(SC)nnc1-c1c[nH]c2ccccc12	–	inactive: -47.4% [at 102 µM]
O=C1OCC(CO)(CO)N=C1NNc1ccccc1[N+](=O)[O-]	inconclusive: 70.8 µM [inhibitor, partial curve, poor fit]	–
CCN(CC)c1ccc(-c2c(C#N)c(N)nc(OC)c2C#N)cc1	inconclusive: 1.26 µM [inhibitor, full curve]	–
O=S(=O)(c1ccc(Cl)s1)N1CCN(C/C=C/c2ccccc2)CC1	active: 14.1 µM	–
Cc1ccc(-n2c(=S)sc3c(=O)n(-c4ccc(F)cc4)c(SCC(=O)O)nc32)cc1C	–	inactive: 12.6% [at 102 µM]
CC(=O)c1ccc(-n2c(CCC(=O)O)ccc2-c2cccs2)cc1	active: 14.1 µM	–
O=C(CCS(=O)(=O)c1ccccc1)N(Cc1cccnc1)c1nc2ccc(F)cc2s1	–	inactive: 3.6%
CC1(C)CC2=C(CO1)C(=S)NC(c1ccccc1)N2CC1CCCO1 (stereo not given)	inconclusive: 50.1 µM [inhibitor, partial curve, poor fit]	–
COc1ccc2c(c1)CC(C1(O)C(=O)Nc3ccccc31)C2=O (stereo not given)	–	inactive: -0.443% [at 102 µM]
O=C(CS(=O)(=O)c1cccc2nsnc12)NCc1ccccc1	–	inactive: 5.08%
C=C1C(=O)C=C2CN(C(=O)c3ccccc3)[C@@](Cc3ccc(F)cc3)(C(=O)OC)[C@@H]12	active: 8.91 µM	–
CCCn1c(=O)c2ccccc2n2c(SCC(=O)NCc3cccs3)nnc12	inconclusive: 39.8 µM [inhibitor, single point]	–
Cc1ccc(NC(=O)C2Cc3ccccc3C(=O)O2)cc1 (stereo not given)	–	inactive: -3.28% [at 102 µM]
CC(=Nc1ccc(C)c(C)c1)C1=C(O)CCC1=O	inconclusive: 79.4 µM [inhibitor, partial curve]	–
COc1cc(OC)c(NC2=C(c3ccc(C(F)(F)F)cc3)C(=O)c3ccccc32)cc1Cl	inconclusive: 3.55 µM [inhibitor, full curve]	–
COc1cc(OC)c(NS(=O)(=O)c2coc(C(N)=O)c2)cc1Cl	active: 70.8 µM	–
Cc1ccc(-n2cc(CNCCc3ncc(C)[nH]3)c(-c3ccc(F)cc3)n2)cc1	–	inactive: -22.3% [at 102 µM]
COc1ccc(C(=O)N/C(=C\c2ccccc2)C(=O)Nc2cccc(C(=O)O)c2)cc1	inconclusive: 89.1 µM [inhibitor, single point]	–
O=C(O)CSc1nc2ccc(NC(=O)COc3ccc(Cl)cc3)cc2s1	–	inactive: -41.7%
Cc1ccc(-c2ccccc2NC(=O)CS(=O)CC(=O)Nc2ccc(C)c(Cl)c2)o1 (stereo not given)	active: 35.5 µM	–
COc1ccc(NC(=O)C2CC(c3cc(OC)c(OC)c(OC)c3)=NO2)cc1OC (stereo not given)	inconclusive: 79.4 µM [inhibitor, partial curve, poor fit]	–
